Read-outs that look alike come from different tables or passages of the source.
Assays:
CHK2(R145W)(h) = target: T1, CHK2(R145W)(h) (Homo sapiens, UniProt O96017, R145W); test: Kinase panel; format: biochemical
T1 construct: purchased Millipore KinaseProfiler

SKOV3 tumor xenografts = test: Xenograft tumor growth inhibition; format: in vivo, mouse
Description: (§1) Tumors were initiated by injecting either cells (SKOV3, CAPAN-2 and HPAC) or a tumor fragments (BT474) subcutaneously into 6–8 week female athymic nude (SKOV3) and SCID (all others) mice. Once tumors reached between 120 and 300 mm^3, mice were randomized according to tumor volume into groups of n = 7–10 mice per treatment. GSK2110183 and GSK2141795 were administered daily at various doses by oral gavage. In combination experiments, GSK1120212 was also administered daily by oral gavage. Tumor volumes and body weight were measured twice weekly, tumor volume was measured with calipers and calculated using equation: […]. Results are represented as percent inhibition on completion of dosing = 100 x [1- average growth of drug-treated population/average growth of vehicle-treated control population].

BT474 tumor xenografts = test: Xenograft tumor growth inhibition; format: in vivo, mouse; details: for maximal inhibition of BT474 tumor growth: 30 mg/kg GSK2110183 and 100 mg/kg GSK2141795 over 3 weeks (as printed in discussion)
Description: as §1

[1] = tested on: phospho-PRAS40 in BT474 tumor xenografts; test: In vivo time course pharmacodynamic assay (phospho-PRAS40 ELISA); design: species or system mouse
Description: The pharmacodynamic studies were carried out in SCID mice bearing BT474 tumor xenografts. […] Protein lysates were prepared and the phospho-PRAS40 ELISA was performed on tumor samples according to the methods described in the main text. Concentration of the test compounds was analysed by HPLC/MS/MS analysis.

BTK(R28H)(h) = target: T2, BTK(R28H)(h) (Homo sapiens, UniProt Q06187, R28H); test: Kinase panel; format: biochemical
T2 construct: purchased Millipore KinaseProfiler

Lyn(m) = target: T3, Lyn(m) (Mus musculus, UniProt P25911); test: Kinase panel; format: biochemical
T3 construct: purchased Millipore KinaseProfiler

MINK(h) = target: T4, MINK(h) (Homo sapiens, UniProt Q8N4C8); test: Kinase panel; format: biochemical
T4 construct: purchased Millipore KinaseProfiler

PKCδ = PKCδ (Homo sapiens, UniProt Q05655); test: Kinase IC50 assay; format: biochemical
CK1γ2(h) = target: T5, CK1γ2(h) (Homo sapiens, UniProt P78368); test: Kinase panel; format: biochemical
T5 construct: purchased Millipore KinaseProfiler

DCAMKL2(h) = target: T6, DCAMKL2(h) (Homo sapiens, UniProt Q8N568); test: Kinase panel; format: biochemical
T6 construct: purchased Millipore KinaseProfiler
T6 sequence (Q8N568 1-766): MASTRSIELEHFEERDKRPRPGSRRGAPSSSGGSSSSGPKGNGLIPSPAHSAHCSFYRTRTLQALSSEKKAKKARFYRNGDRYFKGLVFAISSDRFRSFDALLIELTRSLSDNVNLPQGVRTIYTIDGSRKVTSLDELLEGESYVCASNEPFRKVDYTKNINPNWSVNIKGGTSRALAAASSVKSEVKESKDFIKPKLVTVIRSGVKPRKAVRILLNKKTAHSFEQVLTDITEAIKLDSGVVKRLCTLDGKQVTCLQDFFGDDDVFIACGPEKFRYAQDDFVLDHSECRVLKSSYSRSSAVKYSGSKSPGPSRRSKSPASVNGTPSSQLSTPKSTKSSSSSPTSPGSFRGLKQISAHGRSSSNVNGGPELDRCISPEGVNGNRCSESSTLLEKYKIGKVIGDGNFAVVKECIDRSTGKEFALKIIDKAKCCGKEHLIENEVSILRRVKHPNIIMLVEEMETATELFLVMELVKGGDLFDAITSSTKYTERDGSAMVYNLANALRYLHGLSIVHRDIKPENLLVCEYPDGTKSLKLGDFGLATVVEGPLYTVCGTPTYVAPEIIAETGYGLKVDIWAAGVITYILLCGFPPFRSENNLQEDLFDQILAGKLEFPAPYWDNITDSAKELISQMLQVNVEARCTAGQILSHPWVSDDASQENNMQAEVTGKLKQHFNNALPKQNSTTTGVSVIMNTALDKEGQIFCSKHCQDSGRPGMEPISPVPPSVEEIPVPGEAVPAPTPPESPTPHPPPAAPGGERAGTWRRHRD

Rsk4(h) = target: T7, Rsk4(h) (Homo sapiens, UniProt Q9UK32); test: Kinase panel; format: biochemical
T7 construct: purchased Millipore KinaseProfiler

ROCK-II(h) = target: T8, ROCK-II(h) (Homo sapiens, UniProt O75116); test: Kinase panel; format: biochemical
T8 construct: purchased Millipore KinaseProfiler

Pim-1(h) = target: T9, Pim-1(h) (Homo sapiens, UniProt P11309); test: Kinase panel; format: biochemical
T9 construct: purchased Millipore KinaseProfiler

MAPK2(m) = target: T10, MAPK2(m) (Mus musculus, UniProt P63085); test: Kinase panel; format: biochemical
T10 construct: purchased Millipore KinaseProfiler

[2] = 10 mg/kg oral daily, 20-21 days

T4 sequence (Q8N4C8 whole entry): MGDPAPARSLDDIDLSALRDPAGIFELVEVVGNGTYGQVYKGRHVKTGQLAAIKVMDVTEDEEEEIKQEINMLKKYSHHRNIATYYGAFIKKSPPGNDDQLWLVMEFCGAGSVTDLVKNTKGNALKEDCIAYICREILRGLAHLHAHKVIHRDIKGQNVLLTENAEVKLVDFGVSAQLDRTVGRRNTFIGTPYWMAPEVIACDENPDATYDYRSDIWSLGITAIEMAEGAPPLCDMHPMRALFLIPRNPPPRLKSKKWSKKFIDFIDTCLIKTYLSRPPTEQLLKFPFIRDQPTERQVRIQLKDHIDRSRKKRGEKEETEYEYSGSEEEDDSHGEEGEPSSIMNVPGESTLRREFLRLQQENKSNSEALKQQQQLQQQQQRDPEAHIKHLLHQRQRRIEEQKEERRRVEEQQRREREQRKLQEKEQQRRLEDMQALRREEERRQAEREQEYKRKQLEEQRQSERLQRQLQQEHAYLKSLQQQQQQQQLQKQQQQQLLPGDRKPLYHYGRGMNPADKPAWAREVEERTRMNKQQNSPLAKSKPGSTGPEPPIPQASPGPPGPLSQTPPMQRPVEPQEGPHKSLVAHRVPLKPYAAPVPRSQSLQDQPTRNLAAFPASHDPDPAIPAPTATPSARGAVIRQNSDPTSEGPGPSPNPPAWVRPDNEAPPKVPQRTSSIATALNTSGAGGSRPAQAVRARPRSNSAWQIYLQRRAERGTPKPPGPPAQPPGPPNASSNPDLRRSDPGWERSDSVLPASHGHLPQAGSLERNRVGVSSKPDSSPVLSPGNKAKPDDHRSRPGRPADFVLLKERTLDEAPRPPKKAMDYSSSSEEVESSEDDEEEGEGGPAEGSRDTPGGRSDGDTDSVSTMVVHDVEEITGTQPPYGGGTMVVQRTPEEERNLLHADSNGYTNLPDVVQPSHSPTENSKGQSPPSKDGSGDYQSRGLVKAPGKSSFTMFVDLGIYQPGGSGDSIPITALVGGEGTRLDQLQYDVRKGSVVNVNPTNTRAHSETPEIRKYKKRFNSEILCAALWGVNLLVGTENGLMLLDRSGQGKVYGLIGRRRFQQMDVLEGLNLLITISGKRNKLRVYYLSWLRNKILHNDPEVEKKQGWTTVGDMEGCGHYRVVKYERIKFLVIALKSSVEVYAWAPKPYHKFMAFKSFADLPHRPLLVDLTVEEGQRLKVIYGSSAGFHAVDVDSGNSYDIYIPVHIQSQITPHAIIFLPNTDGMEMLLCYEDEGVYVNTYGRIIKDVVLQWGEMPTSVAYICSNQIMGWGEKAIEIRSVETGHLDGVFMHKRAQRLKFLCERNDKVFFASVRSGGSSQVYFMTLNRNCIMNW
T7 sequence (Q9UK32 whole entry): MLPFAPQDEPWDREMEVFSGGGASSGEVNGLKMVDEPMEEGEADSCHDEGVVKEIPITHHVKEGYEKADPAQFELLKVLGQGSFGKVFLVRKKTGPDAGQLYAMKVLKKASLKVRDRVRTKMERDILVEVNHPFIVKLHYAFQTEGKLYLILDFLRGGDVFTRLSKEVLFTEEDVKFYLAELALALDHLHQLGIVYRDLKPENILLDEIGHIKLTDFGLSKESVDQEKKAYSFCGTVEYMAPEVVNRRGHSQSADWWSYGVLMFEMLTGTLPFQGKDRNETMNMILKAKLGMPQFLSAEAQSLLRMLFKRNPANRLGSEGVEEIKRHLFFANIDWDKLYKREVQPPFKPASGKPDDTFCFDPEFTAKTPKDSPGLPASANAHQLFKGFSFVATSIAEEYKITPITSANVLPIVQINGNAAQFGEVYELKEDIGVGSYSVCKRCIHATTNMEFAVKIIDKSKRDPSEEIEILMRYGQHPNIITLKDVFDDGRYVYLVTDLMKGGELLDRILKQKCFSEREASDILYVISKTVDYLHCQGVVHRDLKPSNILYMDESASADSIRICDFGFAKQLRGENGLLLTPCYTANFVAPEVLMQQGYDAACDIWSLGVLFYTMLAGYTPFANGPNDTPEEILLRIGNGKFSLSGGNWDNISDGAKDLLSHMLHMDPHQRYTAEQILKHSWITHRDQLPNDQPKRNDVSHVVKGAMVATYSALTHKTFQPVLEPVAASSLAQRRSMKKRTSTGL
T9 sequence (P11309 whole entry): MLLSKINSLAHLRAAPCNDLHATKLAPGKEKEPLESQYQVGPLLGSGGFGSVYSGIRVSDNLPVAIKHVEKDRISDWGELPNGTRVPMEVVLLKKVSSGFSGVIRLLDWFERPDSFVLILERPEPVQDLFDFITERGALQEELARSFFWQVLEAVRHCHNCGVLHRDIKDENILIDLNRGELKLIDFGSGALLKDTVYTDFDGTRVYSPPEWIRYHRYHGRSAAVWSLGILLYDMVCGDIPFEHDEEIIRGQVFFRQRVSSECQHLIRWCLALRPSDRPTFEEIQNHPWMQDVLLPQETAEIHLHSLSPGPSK
T5 sequence (P78368 whole entry): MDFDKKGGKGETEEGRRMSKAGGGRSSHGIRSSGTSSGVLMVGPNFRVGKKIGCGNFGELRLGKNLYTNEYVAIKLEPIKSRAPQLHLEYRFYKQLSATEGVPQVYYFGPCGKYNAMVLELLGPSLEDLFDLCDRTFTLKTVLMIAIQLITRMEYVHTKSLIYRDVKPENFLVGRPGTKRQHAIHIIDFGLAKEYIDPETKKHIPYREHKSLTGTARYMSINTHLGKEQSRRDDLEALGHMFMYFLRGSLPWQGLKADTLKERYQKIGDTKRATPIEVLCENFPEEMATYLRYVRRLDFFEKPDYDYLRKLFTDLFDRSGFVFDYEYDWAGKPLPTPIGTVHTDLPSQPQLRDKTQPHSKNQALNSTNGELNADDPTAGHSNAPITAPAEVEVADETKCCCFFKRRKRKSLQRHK
T8 sequence (O75116 whole entry): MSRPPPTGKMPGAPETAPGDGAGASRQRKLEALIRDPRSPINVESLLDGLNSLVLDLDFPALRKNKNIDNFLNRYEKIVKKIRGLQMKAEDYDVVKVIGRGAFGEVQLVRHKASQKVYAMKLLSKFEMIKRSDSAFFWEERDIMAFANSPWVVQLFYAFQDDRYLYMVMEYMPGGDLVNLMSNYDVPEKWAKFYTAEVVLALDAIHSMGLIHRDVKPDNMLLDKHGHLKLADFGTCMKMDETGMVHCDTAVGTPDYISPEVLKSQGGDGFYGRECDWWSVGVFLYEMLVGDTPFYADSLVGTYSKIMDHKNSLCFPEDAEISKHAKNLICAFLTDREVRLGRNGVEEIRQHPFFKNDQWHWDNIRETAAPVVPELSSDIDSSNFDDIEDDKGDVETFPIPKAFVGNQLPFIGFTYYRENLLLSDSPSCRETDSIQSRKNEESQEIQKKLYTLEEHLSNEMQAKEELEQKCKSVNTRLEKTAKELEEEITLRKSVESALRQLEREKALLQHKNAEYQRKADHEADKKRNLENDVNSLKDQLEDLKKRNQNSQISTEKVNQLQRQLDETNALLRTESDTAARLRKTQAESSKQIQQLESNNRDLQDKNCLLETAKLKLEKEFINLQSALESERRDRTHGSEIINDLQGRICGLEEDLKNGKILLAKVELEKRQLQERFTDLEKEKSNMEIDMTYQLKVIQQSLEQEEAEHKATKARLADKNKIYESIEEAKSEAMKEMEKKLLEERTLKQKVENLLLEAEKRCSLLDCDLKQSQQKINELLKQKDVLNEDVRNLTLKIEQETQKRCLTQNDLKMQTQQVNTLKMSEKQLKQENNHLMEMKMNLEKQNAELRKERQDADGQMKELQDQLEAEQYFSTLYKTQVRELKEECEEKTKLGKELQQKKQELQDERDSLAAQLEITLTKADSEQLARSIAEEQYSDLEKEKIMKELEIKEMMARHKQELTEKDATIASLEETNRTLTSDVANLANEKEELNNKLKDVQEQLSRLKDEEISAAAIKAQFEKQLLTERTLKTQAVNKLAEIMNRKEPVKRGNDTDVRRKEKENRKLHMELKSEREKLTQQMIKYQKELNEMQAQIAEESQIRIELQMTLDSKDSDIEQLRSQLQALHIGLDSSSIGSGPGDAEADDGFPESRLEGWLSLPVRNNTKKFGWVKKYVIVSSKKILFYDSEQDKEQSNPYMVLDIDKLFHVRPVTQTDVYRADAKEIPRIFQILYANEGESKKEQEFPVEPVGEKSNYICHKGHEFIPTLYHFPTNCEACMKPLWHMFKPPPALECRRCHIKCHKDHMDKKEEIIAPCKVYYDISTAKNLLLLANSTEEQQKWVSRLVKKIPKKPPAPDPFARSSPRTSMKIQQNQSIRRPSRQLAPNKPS
UniProt Q05655, sequence (Q05655 whole entry): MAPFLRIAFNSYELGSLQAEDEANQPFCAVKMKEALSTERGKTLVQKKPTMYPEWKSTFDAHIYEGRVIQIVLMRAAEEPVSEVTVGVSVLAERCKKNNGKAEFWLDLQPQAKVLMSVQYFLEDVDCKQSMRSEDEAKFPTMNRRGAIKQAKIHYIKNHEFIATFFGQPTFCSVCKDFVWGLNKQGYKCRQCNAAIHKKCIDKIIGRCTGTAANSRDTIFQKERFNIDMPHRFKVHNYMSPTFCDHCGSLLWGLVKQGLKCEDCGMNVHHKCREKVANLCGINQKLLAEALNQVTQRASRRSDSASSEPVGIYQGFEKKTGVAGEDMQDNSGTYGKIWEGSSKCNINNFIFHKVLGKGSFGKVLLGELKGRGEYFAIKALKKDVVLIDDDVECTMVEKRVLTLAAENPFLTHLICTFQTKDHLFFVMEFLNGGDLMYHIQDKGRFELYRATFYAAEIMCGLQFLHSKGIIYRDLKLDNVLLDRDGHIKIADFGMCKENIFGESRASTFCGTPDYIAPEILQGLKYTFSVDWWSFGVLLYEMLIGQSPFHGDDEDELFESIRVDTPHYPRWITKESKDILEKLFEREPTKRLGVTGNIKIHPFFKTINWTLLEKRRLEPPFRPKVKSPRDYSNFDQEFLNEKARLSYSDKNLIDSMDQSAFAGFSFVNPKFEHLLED

Structure (SMILES): Cn1ncc(Cl)c1-c1cc(C(=O)N[C@H](CN)Cc2cccc(F)c2)sc1Cl [GSK2110183]
- inhibition at 0.5 µM (CHK2(R145W)(h)): 42%
- inhibition at 10 µM (CHK2(R145W)(h)): 101%
- tumor growth inhibition (TGI) (SKOV3 tumor xenografts; 10 mg/kg QD (QDx21)): 23%
- tumor growth inhibition (TGI) (SKOV3 tumor xenografts; 100 mg/kg QD (QDx21)): 97%
- tumor growth inhibition (TGI) (BT474 tumor xenografts; [2]): 8%
- maximal inhibition of BT474 tumor growth (BT474 tumor xenografts): 61%
- body weight loss (BT474 tumor xenografts; 10, 30 or 100 mg/kg, after 5 days of dosing, recovered): 1–3%
- time for phospho-PRAS40 levels to return to baseline ([1]; 100 mg/kg QDx7): ≤ 48 h
- inhibition of phospho-PRAS40, time course ([1]; 100 mg/kg QDx7, sustained for 24 h): 60%
- inhibition at 0.5 µM (BTK(R28H)(h)): -10%
- inhibition at 10 µM (BTK(R28H)(h)): 0%
- inhibition at 0.5 µM (Lyn(m)): -2%
- inhibition at 10 µM (Lyn(m)): 20%
- inhibition at 0.5 µM (MINK(h)): 6%
- inhibition at 10 µM (MINK(h)): 8%
- IC50 (PKCδ): 1000 nM
- inhibition at 0.5 µM (CK1γ2(h)): -2%
- inhibition at 10 µM (CK1γ2(h)): 41%
- inhibition at 0.5 µM (DCAMKL2(h)): 14%
- inhibition at 10 µM (DCAMKL2(h)): 61%
- inhibition at 0.5 µM (Rsk4(h)): 34%
- inhibition at 10 µM (Rsk4(h)): 71%
- inhibition at 0.5 µM (ROCK-II(h)): 76%
- inhibition at 10 µM (ROCK-II(h)): 96%
- inhibition at 0.5 µM (Pim-1(h)): -8%
- inhibition at 10 µM (Pim-1(h)): 93%
- inhibition at 0.5 µM (MAPK2(m)): 6%
- inhibition at 10 µM (MAPK2(m)): 12%

Structure (SMILES): Cn1ncc(Cl)c1-c1cc(C(=O)N[C@H](CN)Cc2ccc(F)c(F)c2)oc1Cl [GSK2141795]
- inhibition at 0.5 µM (CHK2(R145W)(h); 0.5 µM, read-out: % Inhibition): 56%
- inhibition at 10 µM (CHK2(R145W)(h); 10 µM, read-out: % Inhibition): 90%
- tumor growth inhibition (TGI) (SKOV3 tumor xenografts; 10 mg/kg QD (QDx21)): 73%
- tumor growth inhibition (TGI) (SKOV3 tumor xenografts; 20 mg/kg QD (QDx21)): 85%
- TGI, SKOV3 tumor xenograft (SKOV3 tumor xenografts; 30 mg/kg GSK2110183 and 100 mg/kg GSK2141795 (as printed in discussion)): 93%
- tumor growth inhibition (TGI) (SKOV3 tumor xenografts; 30 mg/kg QD (QDx21)): 93%
- tumor growth inhibition (TGI) (BT474 tumor xenografts; [2]): 28%
- tumor growth inhibition (TGI) (BT474 tumor xenografts; 20 mg/kg oral daily, 20 days (QDx21)): 57%
- maximal inhibition of BT474 tumor growth (BT474 tumor xenografts): 98%
- tumor growth inhibition (TGI) (BT474 tumor xenografts; 30 mg/kg oral daily, 20-21 days): 98%
- body weight loss (BT474 tumor xenografts; 10, 20 and 30 mg/kg, day 6 of dosing, recovered by end of study): 3–8%
- time for phospho-PRAS40 levels to return to baseline ([1]; 30 mg/kg QDx7): ≤ 48 h
- inhibition of phospho-PRAS40, time course ([1]; 30 mg/kg QDx7, maintained for 8 h): 60%
- inhibition at 0.5 µM (BTK(R28H)(h); 0.5 µM, read-out: % Inhibition): 2%
- inhibition at 10 µM (BTK(R28H)(h); 10 µM, read-out: % Inhibition): -5%
- inhibition at 0.5 µM (Lyn(m); 0.5 µM, read-out: % Inhibition): 8%
- inhibition at 10 µM (Lyn(m); 10 µM, read-out: % Inhibition): 44%
- inhibition at 0.5 µM (MINK(h); 0.5 µM, read-out: % Inhibition): -5%
- inhibition at 10 µM (MINK(h); 10 µM, read-out: % Inhibition): 3%
- IC50 (PKCδ): 69 nM
- inhibition at 0.5 µM (CK1γ2(h); 0.5 µM, read-out: % Inhibition): 5%
- inhibition at 10 µM (CK1γ2(h); 10 µM, read-out: % Inhibition): 64%
- inhibition at 0.5 µM (DCAMKL2(h); 0.5 µM, read-out: % Inhibition): 29%
- inhibition at 10 µM (DCAMKL2(h); 10 µM, read-out: % Inhibition): 81%
- inhibition at 0.5 µM (Rsk4(h); 0.5 µM, read-out: % Inhibition): 18%
- inhibition at 10 µM (Rsk4(h); 10 µM, read-out: % Inhibition): 65%
- inhibition at 0.5 µM (ROCK-II(h); 0.5 µM, read-out: % Inhibition): 70%
- inhibition at 10 µM (ROCK-II(h); 10 µM, read-out: % Inhibition): 95%
- inhibition at 0.5 µM (Pim-1(h); 0.5 µM, read-out: % Inhibition): 15%
- inhibition at 10 µM (Pim-1(h); 10 µM, read-out: % Inhibition): 47%
- inhibition at 0.5 µM (MAPK2(m); 0.5 µM, read-out: % Inhibition): 1%
- inhibition at 10 µM (MAPK2(m); 10 µM, read-out: % Inhibition): 47%

From publication PMC4076210, “Discovery of Novel AKT Inhibitors with Enhanced Anti-Tumor Effects in Combination with the MEK Inhibitor” (PLoS ONE, 2014)
